This note sets out measurements from ChEMBL document CHEMBL1201862, “PubChem BioAssay data set” (2004).

Molecules are shown by their SMILES.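 These data come from cells grown in 96-well plates and exposed to compound for 48 hours at five concentrations. At the GI50, growth is halved.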 Calls of active or inactive are those of the source. Cut-off read from the data, not from the text of the source: active = GI50 up to about 1.1 µM and inactive = higher.

For the assay, the system named is NCI-H322M. The assay can be described thus: NCI-60 cell line screen, 48 h.
On to `O=C(Nc1ccc(Br)c2ccccc12)c1ccc2ccccc2c1O`, for which the GI50 is inactive: 2.77 µM.
Next, `O=C(O)c1cc(Cl)cc(Cc2cc(Cl)cc(C(=O)O)c2O)c1O`: inactive: > 100 µM.
Regarding `COc1ccc(Cc2ccccc2C(=O)O)c2ccccc12`, the GI50 is inactive: 37.3 µM.
Turning to `CC(C)c1ccc(C(O)(C(=O)O)c2ccc(C(C)C)cc2)cc1`, the GI50 was inactive: 43.3 µM.
For `NC(=O)COc1ccccc1`, the GI50 is inactive: > 100 µM.
With `CC1(C)C(=O)/C(=C/c2ccccc2)C(C)(C)C1(C)C`, the GI50 is inactive: 99.8 µM.
Consider `O=C(CO[N+](=O)[O-])OC/C=C/c1ccccc1`, for which the GI50 was inactive: > 100 µM.
As for `CCNC1(c2cccc(C)c2)OC(C)(C)c2cccc3cccc1c23` (stereo not drawn), the GI50 was inactive: 18.5 µM.
In the case of `CC(C)(C)OC(=O)n1cc(C2CNC(=O)C23CCC(=O)N3Cc2ccccc2)c2ccccc21` (stereo not drawn) it was inactive: 22.8 µM; in that of `CCOC(=O)/N=c1\ss/c(=N\C(=S)N(C)C)n1-c1ccccc1`, inactive: > 10 µM.
Consider `CCOC(=O)c1nnsc1NN`, for which the GI50 is inactive: > 100 µM.
Consider `CC12OC3(C)OC(=O)C(c4ccccc4)(O1)C3(C)O2` (stereo not drawn), for which the GI50 is inactive: > 100 µM.
Consider `C=C1C(=O)OC2CC(C)C(/C=C/C(C)=O)=CCC12` (stereo not drawn), for which the GI50 is inactive: > 100 µM.
In the case of `COC(=O)Cc1c([C@H]2[C@H](CC(=O)OC)c3ccccc3N2C(C)=O)[nH]c2ccccc12`, the GI50 is inactive: > 100 µM.
As to `COc1cc2c(cc1O)C=NCC2`, the GI50 is inactive: > 100 µM.
Take `OCCNC1c2cc(Cl)ccc2-c2c(Cl)cc(Cl)cc21` (stereo not drawn): the GI50 is inactive: 38.7 µM.
Next, `CCN(CC)C(=S)N/N=C/c1cc([N+](=O)[O-])ccc1O`: inactive: 7.19 µM; `Cc1ccc2cccc(-c3cccc4ccccc34)c2n1`: inactive: 25.4 µM; `COc1ccc(C(=C(C#N)C#N)c2ccc(OC)cc2)cc1`: inactive: > 100 µM.
As to `COC(=O)c1c(OC)cc2cc3c(c(O)c2c1C)C(=O)C1(O)C(=O)C=C(OC)C(OC(=O)CC(C)N)=C1C3=O` (stereo not drawn), the GI50 is inactive: 10.9 µM.
Consider `CC1(c2cccc(C3CCC4(C=CC3=O)OCCO4)c2)OCCO1` (stereo not drawn), for which the GI50 was inactive: 20.7 µM.
In the case of `CC(=O)OCC(=O)OC[C@H](OCc1ccccc1)[C@@H]1[C@H](OC(C)=O)C(=O)N1Cc1ccccc1`, the GI50 was inactive: > 100 µM.
In the case of `CN(C)c1ccc(/C=C(\NC(=O)c2ccccc2)C(=O)NCC(=O)O)cc1` it was inactive: > 100 µM; in that of `O=c1nc(N2CCN(c3ccccc3)CC2)ccn1C1OC(CO)C(O)C1O` (stereo not drawn), inactive: > 100 µM.
As for `CCCCCCCCCCNCCSSCc1ccc(Cl)cc1`, the GI50 was inactive: 3.16 µM.
As for `O=C(CCl)Nc1ccc(C(=O)N/N=C/c2ccc(Cl)cc2)cc1`, the GI50 was inactive: 12.6 µM.
On to `O=C(N=C1N(c2ccccc2)C(=O)C(=O)N1c1ccccc1)c1ccccc1`, for which the GI50 is inactive: 15.7 µM.
On to `C=CCc1cccc2cc(C(N)=O)c(=N)oc12`, for which the GI50 is inactive: > 100 µM.
With `CCCCCCCCCCCCCCCC(=O)OC(COC(C)=O)CO[PH](=O)O` (stereo not drawn), the GI50 was inactive: 85.7 µM.
Turning to `COc1ccc2c(c1)C/C(=C\c1cccc3ccccc13)C2=O`, the GI50 was inactive: 6.15 µM.
Take `Cn1ncc2cc3c(Nc4ccc(Cl)cc4)cccc3nc21`: the GI50 is inactive: 20.3 µM.
As for `N#C/C(=C(/S)Nc1ccccc1)c1nc2ccccc2[nH]1`, the GI50 was inactive: > 10 µM.
Take `Cc1nc(-c2cc3cc(Cl)ccc3oc2=O)cc2c1c(=O)oc1ccc(Cl)cc12`: the GI50 was inactive: > 100 µM.
In the case of `CSC(=S)N/N=C/c1ccccc1`, the GI50 was inactive: 40.5 µM.
For `N#CCN(Cc1ccccc1)[C@H]1CCC[C@]1(O)/C=C/c1ccc2c(c1)OCO2`, the GI50 was inactive: 33.1 µM.
Regarding `Cc1c(C)c2cc3c(=O)c(CCl)coc3c(C)c2oc1=O`, the GI50 is inactive: > 100 µM.
In the case of `CN(C)CC1CCCCCCCCCC(CN(C)C)C1=O` (stereo not drawn) it was inactive: > 100 µM; in that of `COC(=O)/C(=C(/C)c1ccco1)P(=O)(OC)OC`, inactive: > 100 µM; in that of `c1ccc(COc2cccc3cccnc23)cc1`, inactive: 93.8 µM.
As for `C=CCCC(OCOCCOC)c1cc(C)c(O[Si](C)(C)C(C)(C)C)c(C)c1` (stereo not drawn), the GI50 was inactive: 21.3 µM.
For `Nc1ccc([C@H]2C(=O)N[C@H]3CCC[C@H]32)cc1`, the GI50 is inactive: > 100 µM.
In the case of `COc1cc([C@@H]2c3cc4c(cc3[C@@H](NCc3ccc(C#N)cc3)C3COC(=O)[C@@H]32)OCO4)cc(OC)c1O` (stereo partly drawn) it was inactive: 3.85 µM; in that of `O=C(CSCC(=O)N/N=C/c1cccc(OCc2ccccc2)c1)N/N=C/c1cccc(OCc2ccccc2)c1`, inactive: > 74.8 µM.
In the case of `C=C(C)C(=O)OC1CC2=CC(CC3(C)OC3C3OC(=O)C(=C)C13)OC2=O` (stereo not drawn) it was inactive: 16.9 µM; in that of `c1ccc2c(-c3ccnc(-c4c[nH]c5ccccc45)n3)c[nH]c2c1`, inactive: 10.7 µM; in that of `CN(N)/N=N/c1[nH]cnc1[N+](=O)[O-]`, inactive: > 100 µM.
In the case of `COc1ccc2nc(NC(=O)C(=O)NNC(=O)c3ccncc3)sc2c1`, the GI50 is inactive: > 100 µM.
`COC(=O)C1=C(O)CCCC(CCC(C)=O)=C1`: the GI50 is inactive: > 100 µM.
Turning to `O=c1c2cc(-c3ccccc3)sc2nc2sc(-c3ccccc3)nn12`, the GI50 was inactive: > 100 µM.
Turning to `O=C(O)C1CCCN1Cc1cc2ccccc2c2ccccc12` (stereo not drawn), the GI50 is inactive: > 100 µM.
`c1cc2c(cc1C1=NCCN1)c1cc(C3=NCCN3)ccc1n2CC1CCCCC1`: the GI50 is inactive: 10.6 µM.
For `CCOP(=O)(OCC)C(N)c1ccc(Cl)cc1` (stereo not drawn), the GI50 is inactive: > 100 µM.
With `CN(C)c1ccc2c(=O)c3ccccc3oc2n1`, the GI50 is inactive: > 100 µM.
`O=C1CSC(c2ccc([N+](=O)[O-])cc2)N1c1ccc(-n2c(-c3ccccc3)nc3ccccc3c2=O)cc1` (stereo not drawn): the GI50 is inactive: > 100 µM.
In the case of `Cc1ccc2nc(/C(=C/c3ccc(/C=C(\NC(=O)c4ccccc4)c4nc5ccc(C)cc5[nH]4)c(C)c3)NC(=O)c3ccccc3)[nH]c2c1` it was inactive: 25.5 µM; in that of `N#Cc1nnn(-c2ccc(Br)cc2)c1O`, inactive: > 100 µM.
Regarding `CC(C)=CCC/C(C)=C/CC/C(C)=C/CCN(C)CCO`, the GI50 is inactive: 11 µM.
Turning to `O=C1/C(=C2\SCC(=O)N2c2ccccc2)SC(=S)N1c1ccccc1`, the GI50 is inactive: 29.1 µM.
On to `O=c1c2ccccc2ncn1COCc1ccccc1`, for which the GI50 is inactive: > 100 µM.
As for `CC(C)OP(=O)(OC(C)C)/C(F)=N/Nc1ccc([N+](=O)[O-])cc1`, the GI50 is inactive: > 100 µM.
With `O=S(=O)(c1ccccc1)C(c1ccc2ccccc2n1)S(=O)(=O)c1ccccc1`, the GI50 was inactive: > 100 µM.
Next, `CCc1nc2ccccc2c(=O)n1/N=C(\N=N\c1ccc(Cl)cc1)c1ccccc1`: inactive: 27.1 µM.
In the case of `O=C(N/N=C\c1ccc2ccccc2c1)Nc1ccc([N+](=O)[O-])cc1` it was inactive: 31.4 µM; in that of `COC(=O)C12C3C4C1C1C2C3C41C(=O)O` (stereo not drawn), inactive: > 100 µM; in that of `CC(=O)OC(C)C(=O)C1c2cccc(O)c2C(=O)c2c(O)cc(C)cc21` (stereo not drawn), active: 0.407 µM.
Consider `CCOCc1cc(=O)c2cc3c(cc2o1)OC(C)(C)CC3`, for which the GI50 was inactive: > 100 µM.
Turning to `CC[C@H]1CC(=O)c2c(cc3c(c2O)C(=O)c2ccccc2C3=O)[C@@]1(C#N)C(=O)OC(C)(C)C`, the GI50 was inactive: 3.8 µM.
In the case of `Cn1c(=O)c2nc3c(=O)n(C)c(=O)n(CC(N)=O)c3nc2n(C)c1=O`, the GI50 is inactive: > 100 µM.
In the case of `CN(C)CCNC(=O)c1cc2ccccc2c2nc3ccccc3nc12`, the GI50 is active: 0.612 µM.
Consider `C=C(C)C(=O)O[C@H]1C[C@@]23O[C@@H]2CCC(=C[C@H]2OC(=O)C(=C)[C@H]12)COC3O` (stereo partly drawn), for which the GI50 was inactive: > 100 µM.
Next, `COC1CC(C)(NC(=O)C(F)(F)F)C2OC(c3ccccc3)OCC2O1` (stereo not drawn): inactive: > 100 µM; `Cc1ccc(NC(=O)c2cc3ccccc3c(/N=N/c3cc(S(=O)(=O)O)ccc3O)c2O)c(C)c1`: inactive: 14.2 µM; `O=c1oc2c/c(=C\c3ccccc3)c(=O)c3cccc1c3-2`: inactive: > 100 µM.
As to `Cc1cccc(C(=O)c2cccc3ccccc23)c1C(=O)O`, the GI50 was inactive: > 100 µM.
In the case of `C/C(=C1\C(=O)C(c2ccccc2)N(c2ccccc2)C1=O)c1ccc(Cl)cc1` (stereo not drawn), the GI50 is inactive: 17.3 µM.
Consider `Cc1n[nH]c(=O)n1/N=C/c1cccnc1`, for which the GI50 was inactive: > 100 µM.
Consider `CC1=C(C(=O)OC2CC3CCC2(C)C3(C)C)C2Nc3ccccc3N(C)C2O1` (stereo not drawn), for which the GI50 is inactive: 2.8 µM.
As for `O=C(O)C1CC(c2ccccc2)=NN1c1ccccc1` (stereo not drawn), the GI50 was inactive: > 100 µM.
Regarding `COC(=O)[C@]1(C)CCC[C@]2(C)[C@@H](CCC(=O)C(C)C)[C@]3(C=O)O[C@@H]3C[C@H]21`, the GI50 is inactive: 88.1 µM.
With `CCCCCCCC1(c2ccc(N)cc2)CCC(=O)NC1=O` (stereo not drawn), the GI50 was inactive: 50.2 µM.
On to `Cc1ccc2c(O)cc(-c3sccc3C)nc2n1`, for which the GI50 was active: 0.966 µM.
Regarding `N#C/C(=C\c1cc(O)cc(O)c1)C(N)=O`, the GI50 was inactive: 71.9 µM.
Next, `c1ccc(C/C(=N\Nc2nc3ccccc3o2)c2ccccn2)cc1`: active: 0.0507 µM; `NNS(=O)(=O)c1cc(C(=O)O)cc(C(=O)O)c1`: inactive: > 100 µM; `Cc1ccc2c(=O)cc(-c3cccc(F)c3)[nH]c2n1`: active: 0.0456 µM.
Regarding `O=C(NC1CCN(Cc2ccccc2)CC1)c1cccc(I)c1`, the GI50 is inactive: 28.6 µM.
Regarding `CN(C)Cc1cc(C(=O)/C=C/c2ccccc2Cl)cc(CN(C)C)c1O`, the GI50 is inactive: 2.45 µM.
Take `Cc1c2cccc-2ccc2c1[nH]c1ccccc12`: the GI50 was inactive: 4.36 µM.
